# Test results as given in the supplement of paper PMC3334620.
# In all, about 33,000 sequences were measured (“E-score (-0.5 to 0.5)”: median about -0.021, highest 2% from about 0.32 on). Some of the results follow.
# Target: T1, Zap1 (UniProt P47043)
# T1 sequence: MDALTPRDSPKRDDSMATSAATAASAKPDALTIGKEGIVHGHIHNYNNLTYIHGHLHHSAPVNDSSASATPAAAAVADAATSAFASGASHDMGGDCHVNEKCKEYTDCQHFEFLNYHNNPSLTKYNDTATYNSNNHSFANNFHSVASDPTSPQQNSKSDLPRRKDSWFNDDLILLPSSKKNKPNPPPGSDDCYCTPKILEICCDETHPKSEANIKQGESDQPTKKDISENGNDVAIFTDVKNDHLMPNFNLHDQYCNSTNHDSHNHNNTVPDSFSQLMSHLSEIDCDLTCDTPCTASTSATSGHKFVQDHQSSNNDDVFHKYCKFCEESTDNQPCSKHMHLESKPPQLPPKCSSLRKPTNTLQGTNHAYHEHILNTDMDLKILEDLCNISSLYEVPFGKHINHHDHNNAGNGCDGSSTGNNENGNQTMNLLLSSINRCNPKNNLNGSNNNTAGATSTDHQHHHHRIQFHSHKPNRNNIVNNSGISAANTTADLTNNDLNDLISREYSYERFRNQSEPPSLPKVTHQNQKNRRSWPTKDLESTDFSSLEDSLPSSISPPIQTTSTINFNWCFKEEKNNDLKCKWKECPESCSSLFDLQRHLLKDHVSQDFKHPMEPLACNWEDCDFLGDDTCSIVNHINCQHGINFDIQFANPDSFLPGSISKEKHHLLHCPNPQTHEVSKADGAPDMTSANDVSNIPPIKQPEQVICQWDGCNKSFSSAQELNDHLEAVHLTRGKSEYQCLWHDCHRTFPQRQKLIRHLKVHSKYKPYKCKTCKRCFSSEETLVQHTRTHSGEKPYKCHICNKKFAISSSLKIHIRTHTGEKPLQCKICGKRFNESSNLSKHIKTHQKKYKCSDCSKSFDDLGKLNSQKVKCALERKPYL
# Assay: PBM E-score (8-mer binding enrichment) (E-score (-0.5 to 0.5)); higher = stronger / more preferred TF binding; most listed sequences are background and not binding sites
# Conditions: protein concentration: 200 nM; construct: GST-full length
# Method in brief: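 Yeast transcription factors carrying a GST tag, as full-length proteins or DNA-binding domains, were produced by PURExpress in vitro transcription/translation. About 100-200 nM protein was applied to universal all-10-mer Agilent arrays, double-stranded by primer extension on fresh or once-stripped slides. Bound protein was detected with fluorescent anti-GST, and scans were normalised with masliner. The Universal PBM Analysis Suite gave each ungapped eight-base word, pooled with its reverse complement, an E-score, a modified Wilcoxon-Mann-Whitney statistic.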
row,Sequence,PBM E-score
1,ACGTCCTG,-0.251
2,GCCCGGAA,-0.0366
3,CTAACATC,0.0131
4,ACAAGGCT,-0.249
5,CCACCGCG,0.0738
6,TACGTCGA,-0.269
7,TACTCCGA,-0.0231
8,AATCGTCC,-0.191
9,CCAGTGAG,-0.0795
10,CCTGTCCA,-0.108
11,ACATGGCT,-0.059
12,ATGGATTA,-0.103
13,CCTCATAA,0.168
14,AGTTGGTG,-0.0307
15,GCGGCGAC,0.00062
16,CCACCGGA,0.038
17,ACAACCAC,0.361
18,ATCATTGC,-0.123
19,CTTCGGAC,-0.0446
20,AGACAAGC,-0.0265
21,TGATACCA,0.0529
22,AAATCGAC,0.108
23,GAGAGATC,-0.0248
24,AATTGGGT,0.285
25,TCGATGCA,-0.26

row,Sequence,PBM E-score
1,CGTAGCAC,-0.0744
2,AAACGCTC,-0.162
3,CTGACGTC,-0.11
4,ATCGCCCA,-0.169
5,AGCCGGCG,0.129
6,ACACGACA,0.108
7,GTAGAGCA,-0.0982
8,TCCGTAAA,0.0502
9,CAGGCCGA,-0.103
10,CCCTCGGA,0.273
11,ACAACGAT,-0.104
12,CTTCTCAC,-0.17
13,CGACCCAG,0.0483
14,TCTGACCA,0.214
15,CCTCGCAC,-0.0237
16,ACTCTGGG,0.00027
17,AGCGCTCG,-0.252
18,CGATAACG,-0.174
19,CATGCATC,-0.0712
20,ACCAAAAT,0.273
21,ACCCCGGC,0.119
22,ACCCCCCC,-0.35
23,CTCAAGTA,-0.0233
24,AGGCCAGC,-0.147
25,GATAACGC,-0.11

row,Sequence,PBM E-score
1,CAGATACA,0.0912
2,TAGGTACA,-0.0387
3,CAACATCA,-0.0421
4,CCTGCGGA,0.101
5,CGCTGCCA,-0.309
6,CCACGATC,0.209
7,GTCTTTGA,-0.0575
8,AGCAGACG,-0.286
9,ACGTTTAT,0.0998
10,GATGAGGA,0.0131
11,GGATTGAA,0.00501
12,ATTCGAGC,-0.169
13,TATAGACA,0.0837
14,GTATGAAA,0.151
15,AGGCGTTC,-0.144
16,GGGGGTAA,-0.0883
17,AAGTTAGT,-0.0228
18,AAGTAACG,0.052
19,GGGGGGGA,-0.422
20,ACAGGGTA,0.366
21,TCACATGA,-0.0588
22,GAATACGA,0.027
23,GGGGACAA,0.196
24,AACTACTG,-0.00324
25,CACGAGTA,-0.122

row,Sequence,PBM E-score
1,ATAGACAA,0.0955
2,AGTTGCGC,-0.215
3,ATGGATAG,-0.158
4,CCCCTGCC,-0.14
5,AACAGGGT,0.348
6,CGATGCCC,-0.294
7,AATTGGAA,0.0687
8,CGGTGCGA,-0.0965
9,ATTGGAGA,-0.0327
10,ACAACTCA,0.0673
11,CCAGACGG,-0.0508
12,AGGCTATC,0.00193
13,AATTCGAT,0.103
14,ACGTGGGA,-0.153
15,GTACTCAA,0.0145
16,AATCACCG,-0.0435
17,CCGCTATA,-0.172
18,TGCCGAAA,-0.00691
19,AATAGGAA,0.0505
20,GTAGCCAA,-0.0673
21,CGCTGGCC,-0.161
22,CCAGAGAG,-0.123
23,CGACAGTC,-0.354
24,AGTATAAG,0.0626
25,CGAGAGTA,0.0923

row,Sequence,PBM E-score
1,AGCAGCTG,-0.112
2,AAACCGTT,0.00477
3,GTAGGCGA,-0.231
4,CAGTGTGC,-0.324
5,ATAAGATA,0.157
6,AGGATGGC,-0.149
7,CAGAGTGA,-0.234
8,ACACTCCG,-0.159
9,AACTCGAT,0.103
10,CTCATTGA,-0.0437
11,AAGACCAC,0.0451
12,CTACGGTC,-0.162
13,AAATCATT,0.0365
14,CTCCATTC,-0.134
15,CACAGTAC,0.148
16,CCCTTTTC,0.0941
17,CTCGGGGC,-0.0665
18,AGAATCCC,0.0252
19,CACAACAC,0.152
20,CAGTCCGG,-0.108
21,ATTGCTCC,-0.156
22,GTATAGCA,-0.104
23,CCTTCCAA,-0.0682
24,TACACCTA,0.11
25,CATAGGCG,-0.15

row,Sequence,PBM E-score
1,GGGCAAAA,0.173
2,GCTAGAGC,-0.197
3,GAACGCTA,-0.334
4,GCAGGGAC,-0.0759
5,ACGGGCAT,-0.0999
6,CCGGTGCC,-0.212
7,AGGCTGTG,-0.114
8,ACCTAGCC,-0.193
9,AACCCGGA,0.332
10,ATGCCATC,-0.0807
11,ACGCGGTA,0.136
12,GTTCAGTA,0.239
13,GCATATAC,-0.0818
14,CGTTATCC,-0.0732
15,AACAGACC,0.12
16,CAACTCTG,-0.119
17,CTCGGATC,-0.015
18,CCTGACCG,0.0354
19,AAAGATTT,-0.0088
20,CATTCGCC,-0.133
21,TCTTATAA,0.162
22,AAAAGGGT,0.386
23,TCGGATAA,0.178
24,AGTCCCCA,0.0159
25,ATCGCCGA,-0.121

row,Sequence,PBM E-score
1,CAGCGCTC,-0.246
2,TCACTCCA,-0.111
3,ATTAAAGC,0.0816
4,CGCGTAAC,0.0699
5,CGGTCAGA,0.11
6,CTTCGCGA,0.0205
7,TCAGGTAA,0.0394
8,AAATGGAC,0.15
9,AGCAGTTC,-0.00971
10,CGTTATAA,0.247
11,TACGGGGA,-0.0365
12,ATCAGCCA,-0.259
13,AGGCCATC,-0.0217
14,AGACTGTG,-0.243
15,CAAAAAGG,0.197
16,AGTTGTTC,0.14
17,ATATCCGC,-0.00426
18,CTAATGTC,-0.098
19,GTACGGAA,0.153
20,ATATCGGA,0.0419
21,CAGCCTGG,-0.0772
22,TACCCGTA,0.273
